Data reported in PubChem BioAssay AID360 (National Center for Advancing Translational Sciences (NCATS), 2006).
Out of some 48,000 compounds screened, about 550 (1.1%) were called active. Not shown: some 4% with an inconclusive outcome. Rule as the data show it: active = potency below about 15 µM; inconclusive = mostly about 16 µM to 33 µM; inactive = weaker than that. This is one part of the list.

These molecules were tested against Lysosomal acid glucosylceramidase (Homo sapiens) (UniProt P04062) (assay: Glucocerebrosidase). Conditions: purified enzyme, resorufin glucoside fluorescence (screen aimed at inhibitors), 20 min; series mostly up to 77 µM.
Chain of UniProt P04062 (P04062 whole entry, looked up): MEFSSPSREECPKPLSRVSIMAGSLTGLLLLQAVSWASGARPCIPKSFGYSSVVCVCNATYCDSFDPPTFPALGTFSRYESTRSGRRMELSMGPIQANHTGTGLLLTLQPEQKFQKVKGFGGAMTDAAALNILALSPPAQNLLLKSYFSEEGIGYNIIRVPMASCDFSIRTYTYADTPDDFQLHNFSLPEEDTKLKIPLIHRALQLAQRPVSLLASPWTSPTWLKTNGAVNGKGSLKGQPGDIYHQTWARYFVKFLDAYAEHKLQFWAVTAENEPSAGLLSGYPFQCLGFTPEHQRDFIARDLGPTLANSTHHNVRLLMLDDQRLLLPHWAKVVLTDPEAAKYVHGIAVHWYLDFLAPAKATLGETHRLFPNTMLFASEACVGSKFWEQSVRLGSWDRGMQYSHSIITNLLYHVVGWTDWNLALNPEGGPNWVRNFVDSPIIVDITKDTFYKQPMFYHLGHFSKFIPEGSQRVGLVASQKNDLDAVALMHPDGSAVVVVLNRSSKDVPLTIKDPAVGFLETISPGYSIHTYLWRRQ
In short: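 Compounds titrated against 0.2 nM normal enzyme, 30 uM resorufin beta-D-glucopyranoside substrate, citrate/phosphate buffer with taurocholate and tween-20, pH 5.9. Reaction ran 20 min at room temperature; fluorescence (Ex 548/Em 600) gave AC50.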
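Also: the screen sought inhibitors.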
Potency is read from the fitted curve at half-maximal effect.

Potency, inactive:
Cc1cc2n(n1)C(c1ccc3c(c1)OCO3)Nc1ccccc1-2 (configuration not stated) > 76.9 µM, O=S(=O)(c1ccccc1)N1CCN(Cc2ccccc2C(F)(F)F)CC1 > 76.9 µM, CCOC(=O)CSc1nc2ccccc2c(=O)n1CC1CCC(C(=O)NCc2ccco2)CC1 (configuration not stated) > 76.9 µM, CN(C)S(=O)(=O)c1ccc2oc(SCC(=O)NCC(F)(F)F)nc2c1 > 76.9 µM, Cc1ccc(C2C3=C(CCCC3=O)Nc3nc(SCC(=O)NCc4ccco4)[nH]c(=O)c32)cc1 (configuration not stated) > 76.9 µM, C=CCn1c(SCC(=O)Nc2cccc(C(=O)OC)c2)nnc1C(C)NC(=O)c1cccs1 (configuration not stated) > 76.9 µM, COC(=O)c1ccccc1NC(=O)c1ccc2c(c1)C(=O)N(Cc1ccco1)C2=O > 76.9 µM, Cc1cc(C)c2c(N)c(C(=O)N3CCCCCC3)sc2n1 > 76.9 µM, CCN1C(=O)c2cccc3c(S(=O)(=O)Nc4ccccc4OC)ccc1c23 > 76.9 µM, c1ccc(-c2nnc(CN3CCC4(CC3)OCCO4)o2)cc1 > 76.9 µM, CC(=O)N=c1sc2ccccc2n1C > 76.9 µM, CCOC(=O)c1sc(NC(=O)CSc2nc3c(cc2C#N)CCCCCC3)c(C#N)c1C > 76.9 µM, Cc1ccc(-c2csc3nc(C)n(-n4c(C)ccc4C)c(=O)c23)o1 > 76.9 µM, Cc1nnc(SCc2cc(=O)[nH]c(N3CCCCC3)n2)s1 > 76.9 µM, O=C(CN1CCN(C(=O)c2cccc(F)c2)CC1)Nc1ccccc1F > 76.9 µM, CCOC(=O)N1CCC(NC(=O)C2CCCN(C(=O)N3CCOc4ccccc43)C2)CC1 (configuration not stated) > 76.9 µM, C=C(C)COc1ccc(-c2ncncc2Oc2ccc(OC)cc2)c(O)c1 > 76.9 µM, Cc1cc(Cl)c2c(c1)[C@]1(C(=O)N2)[C@@H]2C(=O)N(Cc3ccccc3)C(=O)[C@@H]2[C@@H]2CCCN21, Cc1noc(C)c1C(=O)NC(C)c1ccc2c(c1)OCO2 (configuration not stated) > 76.9 µM, CCOC(=O)C1=C(CN2CCOCC2)NC(=O)NC1c1cc(C)ccc1C (configuration not stated) > 76.9 µM, COc1ccc(C)cc1S(=O)(=O)N(CC(=O)O)c1ccc(F)cc1 > 76.9 µM, Cc1csc(NC(=O)Cn2cnnn2)n1 > 76.9 µM, Cn1c(=O)n(Cc2ccc(Cl)cc2)c(=O)c2c1nc1n2CCN1Cc1ccco1 > 76.9 µM, CCOC(=O)Nc1ccc2c(C)cc(=O)oc2c1 > 76.9 µM, CCCCCn1c(-c2ccco2)nc2nc3ccccc3nc21 > 76.9 µM, Cc1onc(-c2ccccc2Cl)c1C(=O)NCC(=O)O > 76.9 µM, CCc1cc(=O)oc2cc(C)cc(OC(=O)c3ccco3)c12 > 76.9 µM, Cc1cccc(C)c1NC(=O)CSc1nnc(-c2ccncc2)n1Cc1ccco1 > 76.9 µM, Cc1c(C(=O)OC(C)C)[nH]c2c1C(=O)CCC2 > 76.9 µM, O=C(O)c1ccc(Cl)c(S(=O)(=O)N2CCCCCC2)c1 > 76.9 µM, Cc1cc(=O)[nH]c(SCC(=O)N2c3ccccc3CC2C)n1 (configuration not stated) > 76.9 µM, Cc1ccc(C)c(OCCCC(=O)O)c1 > 76.9 µM, c1ccc(-n2nnnc2SCc2cccc3nsnc23)cc1 > 76.9 µM, Cc1cc(=O)oc(C)c1C(=O)NCCCN1C(C)CCCC1C (configuration not stated) > 76.9 µM, CNC(=O)c1cc2c(=O)n3cccc(C)c3nc2n1C > 76.9 µM, O=C(CN1CCCCC1)NCCNC(=O)CN1CCCCC1 > 76.9 µM, N#Cc1nc(-c2ccco2)oc1N1CCN(C(c2ccccc2)c2ccccc2)CC1 > 76.9 µM, O=C(c1ccco1)N1CCCN(C(=O)c2ccco2)CC1 > 76.9 µM, O=C(CCn1c(=O)oc2ccccc21)N1CCc2ccccc21 > 76.9 µM, CC1CCN(S(=O)(=O)c2ccc3c(c2)c(=O)c(C(=O)N2CCCCC2)cn3C)CC1 > 76.9 µM, CC1(C)CC(=O)C(CC(=O)NC(=O)NCc2ccccc2)=C(O)C1 > 76.9 µM, CCOc1ccc2[nH]c(=O)c(CN(CCOC)C(=O)N3CCOCC3)cc2c1 > 76.9 µM, COc1ccc(CNC(=O)C2COc3ccccc3O2)cc1 (configuration not stated) > 76.9 µM, O=C(CCCn1c(=O)[nH]c2ccsc2c1=O)NCc1cccs1 > 76.9 µM, Cc1ccc(C(C)C)c(Oc2nnnn2-c2ccccc2)c1 > 76.9 µM, CCCCNC(=O)CCn1nc(-c2ccccc2)ccc1=O > 76.9 µM, CCC1(CC)NC(=O)N(CC(=O)OCn2nnc3ccccc3c2=O)C1=O > 76.9 µM, c1cnc(Oc2ccc3oc4ccccc4c3c2)nc1 > 76.9 µM, CCC(=O)N1CCc2cc(Br)cc(S(=O)(=O)NCCN3CCCCC3CC)c21 (configuration not stated) > 76.9 µM, Cc1[nH]nc2c1C1(C(=O)N(Cc3ccc(Cl)cc3)c3ccccc31)C(C#N)=C(N)O2 (configuration not stated) > 76.9 µM, CCOc1ccc(NC(=O)N(C2CCCCCC2)C2CCN(C(C)=O)CC2)cc1 > 76.9 µM, O=C1OCCC1Sc1nc(-c2ccccc2)cs1 (configuration not stated) > 76.9 µM, CCOC(=O)C1=C(C)OC(N)=C(C#N)C1c1cc2c(cc1Br)OCO2 (configuration not stated) > 76.9 µM, CN1CCc2c(sc(/N=C/c3ccco3)c2C(N)=O)C1 > 76.9 µM, COc1ccc(C)cc1S(=O)(=O)N1CCCC(C(=O)NCC2CCCO2)C1 (configuration not stated) > 76.9 µM, O=C(Cn1c(C(=O)NCC2CCCO2)cc2sccc21)c1ccccc1 (configuration not stated) > 76.9 µM, COC(=O)c1ccccc1N1C(=O)C2C(C1=O)[C@H]1C=C[C@@H]2C1 (some centres not stated) > 76.9 µM
